Experimental data as given in PubChem BioAssay AID1346428 (National Center for Advancing Translational Sciences (NCATS), 2018).
Among all 48,000 compounds or so, about 1,200 (2.5%) were called active. About 2% were inconclusive and are not listed.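 Rule for the calls: active = activation of at least 60% and not above a set upper limit (about 1 call in 100 departs from these limits); inconclusive = activation of 40% to 60%, or above that upper limit; inactive = activation under 40%.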 The list shows a part of the results.

target: Probable G-protein coupled receptor 32 (Homo sapiens) (UniProt O75388); experiment: qHTS for Agonists of Human Resolvin D1 Receptor DRV1; details: CHO-K1 GPR32 beta-arrestin PathHunter luminescence, 90 min; at 76.9 µM; active compounds read high; zero percent set by DMSO-only wells; note: 0% is about no effect
UniProt O75388, sequence (O75388 whole entry, looked up): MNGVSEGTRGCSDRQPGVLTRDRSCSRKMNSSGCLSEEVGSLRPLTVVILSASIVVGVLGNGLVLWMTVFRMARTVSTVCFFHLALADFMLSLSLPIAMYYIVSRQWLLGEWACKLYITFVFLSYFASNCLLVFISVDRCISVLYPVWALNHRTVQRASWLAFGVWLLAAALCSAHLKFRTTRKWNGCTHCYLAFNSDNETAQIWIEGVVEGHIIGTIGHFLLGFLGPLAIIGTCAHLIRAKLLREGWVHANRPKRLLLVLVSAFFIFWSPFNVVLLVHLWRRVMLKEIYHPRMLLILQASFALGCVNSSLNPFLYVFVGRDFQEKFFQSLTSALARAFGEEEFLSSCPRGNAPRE
Procedure, shortened: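 Step 1: seed CHO-K1 GPR32 beta-arrestin cells, 2,500/well, overnight at 37 °C. Step 2: add compounds, 90 min at 37 °C. Step 3: detection reagent, 1 h ambient, then luminescence.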

**Q.** Which activation does the source give for `Cc1ccc(-c2nc3c4ccccc4n(CC(=O)NCc4ccc(F)cc4)c(=O)n3n2)cc1` here?
**A.** Its activation is inactive: -4.1%.

**Q.** Which activation does the source give for `O=C(O)c1ccc2nc(-c3cc4cc(Cl)ccc4oc3=O)[nH]c2c1` here?
**A.** Its activation is inactive: -2.99%.

**Q.** With `Cc1ccc(C(=O)c2oc3ccccc3c2NC(=O)Cc2coc3ccc(C)cc23)cc1` as the molecule, how does the activation read?
**A.** The activation was inactive: -2.85%.

**Q.** How did the activation turn out when `COc1ccc(-n2cnc3cc(C(=O)NC4CCCCCC4)ccc32)cc1` was run?
**A.** The activation was inactive: -3.5%.

**Q.** Which activation does the source give for `CCOC(=O)c1c(C)[nH]c(C)c1S(=O)(=O)N(C)CC(=O)NCc1ccc(Cl)cc1` here?
**A.** The activation was inactive: 9.19%.

**Q.** How did the activation turn out when `O=C1COc2cc(S(=O)(=O)CCC(=O)NC3CCCCC3)c(Cl)cc2N1` was run?
**A.** Its activation is inactive: 9.78%.

**Q.** With `COc1ccc(C)cc1-n1cnc2cc(C(=O)NC3CCCCCC3)ccc21` as the molecule, how does the activation read?
**A.** Its activation is inactive: -14.8%.

**Q.** Which activation does the source give for `Cc1ccc2onc(CNC(=O)NCc3ccc(Cl)cc3)c2c1` here?
**A.** The activation was inactive: 12.5%.

**Q.** For `CCc1nc(-c2cc(S(=O)(=O)N3CCN(c4ccccc4)CC3)ccc2OC)no1`, which activation is on record?
**A.** The activation was inactive: -1.44%.

**Q.** Which activation does the source give for `CCc1nn(CC(=O)NCCCN(CC)CC)c(=O)c2cc3occc3n12` here?
**A.** Its activation is inactive: -6.47%.

**Q.** For `COc1cccc(CNC(=O)CN2C(=O)N(c3ccc(C)cc3C)S(=O)(=O)c3ccccc32)c1OC`, which activation is on record?
**A.** The activation was inactive: -4.96%.

**Q.** Which activation does the source give for `Cn1c(SCC(=O)Nc2nc3ccccc3s2)ncc(C(=O)Nc2ccccc2)c1=O` here?
**A.** Its activation is inactive: -6.09%.

**Q.** For `CCSc1ncc(Cl)c(C(=O)Nc2c(C(=O)Nc3ccccc3)oc3ccccc23)n1`, which activation is on record?
**A.** Its activation is inactive: -6.66%.

**Q.** `CCOc1ccc(CCNC(=O)CCCc2nnc3n(CC)c(=O)c4sccc4n23)cc1` was tested. Which activation did it give?
**A.** The activation was inactive: -0.849%.

**Q.** For `O=C(CSc1nccn1-c1cccc(Cl)c1)Nc1cccc2ccccc12`, which activation is on record?
**A.** The activation was inactive: -13.3%.

**Q.** For `COc1cccc(C(=O)Nc2cccc(-c3nc4ncccn4c3C)c2)c1`, which activation is on record?
**A.** Its activation is active: 61.5%.

**Q.** With `Cn1c(=O)c2c(-c3ccc(Br)cc3)n(Cc3ccc(F)cc3)cc2n(C)c1=O` as the molecule, how does the activation read?
**A.** The activation was inactive: 0.997%.

**Q.** With `COc1ccc(-c2nc3cc(C)ccn3c2NC(=O)c2cccc(F)c2)cc1` as the molecule, how does the activation read?
**A.** The activation was inactive: -37%.

**Q.** Which activation does the source give for `COc1ccc(C(=O)N2CCc3cc(OC)c(OC)cc3C2COc2ccccc2OC)cc1` (stereo not drawn) here?
**A.** The activation was inactive: -9.59%.

**Q.** For `COC(=O)c1c(C)sc(-c2c(-c3cccc(OC)c3)[nH]c3c2c(=O)[nH]c(=O)n3C)c1O`, which activation is on record?
**A.** Its activation is inactive: -13.9%.

**Q.** With `CC(=O)Nc1ccc(S(=O)(=O)NC2(C(F)(F)F)NC(=O)N(c3ccc(Cl)cc3)C2=O)cc1` (stereo not drawn) as the molecule, how does the activation read?
**A.** Its activation is inactive: 1.24%.

**Q.** `CCCCN(CC)C(=O)Nc1ccc2c(c1)N(C)C(=O)c1ccccc1S2` was tested. Which activation did it give?
**A.** Its activation is inactive: -23.8%.

**Q.** How did the activation turn out when `O=C(Nc1ccc(Cl)c(Cl)c1)C1CC1` was run?
**A.** The activation was active: 82.6%.

**Q.** How did the activation turn out when `CCCn1c(=O)c2sccc2n2c(CCCC(=O)Nc3ccc(C)c(F)c3)nnc12` was run?
**A.** The activation was inactive: -11.8%.

**Q.** With `COc1ccc(C)c2sc(N(Cc3cccnc3)C(=O)CCc3ccccc3)nc12` as the molecule, how does the activation read?
**A.** Its activation is inactive: -10.4%.

**Q.** How did the activation turn out when `COc1ccc(-c2noc(CN3CCN(c4ccccc4OC)CC3)n2)cc1OC` was run?
**A.** The activation was inactive: 17.9%.

**Q.** How did the activation turn out when `Cc1ccc(C(=O)COC(=O)c2cc(-c3ccc(Cl)cc3)nc3ccccc23)cc1` was run?
**A.** The activation was inactive: 24.5%.

**Q.** With `CCc1nnc(SCC(=O)Nc2cc(Cl)c(OC)cc2OC)c2cc3oc(C)cc3n12` as the molecule, how does the activation read?
**A.** Its activation is inactive: -0.0402%.

**Q.** How did the activation turn out when `COc1cccc(N2CC(NC(=O)COc3ccc4ccccc4c3)CC2=O)c1` (stereo not drawn) was run?
**A.** The activation was inactive: -11.2%.

**Q.** For `COc1ccc(OC)c(-c2noc(CSc3nnc(Cc4ccccc4)n3-c3cccc(C)c3)n2)c1`, which activation is on record?
**A.** The activation was inactive: -18.4%.

**Q.** How did the activation turn out when `Cc1noc2nc(C(=O)O)nc(N3CCCCC3)c12` was run?
**A.** The activation was inactive: 3.91%.

**Q.** How did the activation turn out when `Cn1cc(S(=O)(=O)c2ccccc2)c(=O)c2cc(F)c(N3CCCCC3)cc21` was run?
**A.** The activation was inactive: -3.62%.

**Q.** `CC(=O)c1ccc(NC(=O)CCn2nc(C)c(S(=O)(=O)N3CCC(C)CC3)c2C)cc1` was tested. Which activation did it give?
**A.** Its activation is inactive: -12.9%.

**Q.** For `CC1CCC(NC(=O)Cn2ncc3c4ccccc4n(Cc4ccc(Cl)cc4)c3c2=O)CC1` (stereo not drawn), which activation is on record?
**A.** Its activation is inactive: -6.08%.

**Q.** Which activation does the source give for `Cc1ccc(S(=O)(=O)c2c(Nc3cccc(Cl)c3)sc(C(=O)c3ccc4c(c3)OCO4)c2N)cc1` here?
**A.** Its activation is inactive: -1.8%.

**Q.** `CCOc1ccc(NC(=O)CSC2=Nc3ccccc3C3=NC(CC(=O)NCc4ccc5c(c4)OCO5)C(=O)N23)cc1` (stereo not drawn) was tested. Which activation did it give?
**A.** Its activation is inactive: 8.47%.

**Q.** With `O=C(NCc1ccccc1Cl)c1ccc(NC(=O)N2CCCCc3ccccc32)cc1` as the molecule, how does the activation read?
**A.** Its activation is inactive: -5.23%.

**Q.** Which activation does the source give for `Cc1ccc(C(=O)c2oc3ccccc3c2NC(=O)Cc2coc3c(C)c(C)ccc23)cc1` here?
**A.** Its activation is inactive: -5.02%.

**Q.** Which activation does the source give for `COc1cc(C)ccc1OCCSc1nnc(-c2ccc(C)cc2)o1` here?
**A.** Its activation is inactive: 3.21%.

**Q.** `O=C(OCc1cc(=O)n2c3c(sc2n1)CCCC3)c1cccc(NC(=O)c2ccccc2F)c1` was tested. Which activation did it give?
**A.** Its activation is inactive: -28%.

**Q.** With `COc1ccc(-c2nc3ccccc3n2Cc2ccc(Cl)cc2)cc1` as the molecule, how does the activation read?
**A.** The activation was inactive: -0.196%.

**Q.** `Cc1cccc(NC(=O)CN(C)S(=O)(=O)c2ccc3c(c2)c(=O)n(C)c(=O)n3C)c1` was tested. Which activation did it give?
**A.** Its activation is inactive: 11.8%.

**Q.** `COc1ccccc1C(=O)Nc1ccc(-c2nc3ccccc3s2)c(C)c1` was tested. Which activation did it give?
**A.** Its activation is inactive: -10%.

**Q.** For `Cc1cc(Br)ccc1NC(=O)C1(S(=O)(=O)c2ccc(Cl)cc2)CC1`, which activation is on record?
**A.** Its activation is inactive: -13.9%.

**Q.** Which activation does the source give for `O=C(NCCS(=O)(=O)N1CCN(c2ccccc2)CC1)C1CC(=O)N(c2ccccc2)C1` (stereo not drawn) here?
**A.** The activation was inactive: -19.6%.

**Q.** With `CC1CCCCN1CC(=O)N1CCCc2c1c(=O)oc1ccc(OCc3ccccc3)cc21` (stereo not drawn) as the molecule, how does the activation read?
**A.** The activation was inactive: -1.28%.

**Q.** Which activation does the source give for `Cc1ccc(-c2cc(C(=O)N(Cc3ccccc3)Cc3ccco3)no2)cc1F` here?
**A.** Its activation is inactive: -6.53%.

**Q.** `CCOc1ccc(CCNc2nc3c(-c4ccc(C)cc4)nnn3c3ccccc23)cc1OCC` was tested. Which activation did it give?
**A.** Its activation is inactive: 7.35%.

**Q.** `Cc1ccc(-c2ccc(=O)n(CC(=O)Nc3ccc(F)c(Cl)c3)n2)cc1C` was tested. Which activation did it give?
**A.** Its activation is inactive: 2.32%.

**Q.** Which activation does the source give for `COc1ccc(-c2nc(CNS(=O)(=O)c3ccc(C)cc3)cs2)cc1` here?
**A.** Its activation is inactive: -3.2%.

**Q.** `COc1ccccc1C(=O)Nc1nnc(S(=O)(=O)N2CCCCCC2)s1` was tested. Which activation did it give?
**A.** Its activation is inactive: 6.36%.

**Q.** How did the activation turn out when `CCOc1ccccc1C(=O)Nc1ccc(S(=O)(=O)N2CCCCC2c2cccnc2)cc1` (stereo not drawn) was run?
**A.** The activation was inactive: 24.6%.

**Q.** Which activation does the source give for `COc1cccc(NC(=O)CSC2=Nc3ccccc3C3=NC(CCC(=O)NCc4ccco4)C(=O)N23)c1` (stereo not drawn) here?
**A.** The activation was inactive: -27.6%.
